# Source: the supplement of paper PMC8728848
# Some of the results follow.
# B1: SSR1 (Sclerotium rolfsii), A0A0M3KL30 (protein)
# chain: TYKITVRVYQTNPDAFFHPVEKTVWKYANGGTWTITDDQHVLTMGGSGTSGTLRFHADNGESFTATFGVHNYKRWCDIVTNLAADETGMVINQQYYSQKNREEARERQLSNYQVKNAKGRNFQIVYTEAEGNDLHANLIIG
# Experiments:
# Test in all cases: glycan array binding signal (z-score within array); higher = stronger binding
# Details in all cases: glycan notation: IUPAC condensed, linker removed
# Gal6S(b1-4)Glc = target: Gal6S(b1-4)Glc
# Method in brief: (§1)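 Glycan array binding is given as a within-array Z-score, which can be read as non-binding when negative. The arrays, 3228 of them, came from the Consortium for Functional Glycomics database and were retained only where the protein sequence was available. Z-scores were averaged across arrays of the same protein sequence at different concentrations or buffers and across linkers.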
# Gal6S(b1-4)Glc6S = target: Gal6S(b1-4)Glc6S
# Method in brief: as §1
# Gal6S(b1-4)GlcNAc = target: Gal6S(b1-4)GlcNAc
# Method in brief: as §1
# Gal6S(b1-4)GlcNAc6S = target: Gal6S(b1-4)GlcNAc6S
# Method in brief: as §1
# GalNAc(a1-3)Gal = target: GalNAc(a1-3)Gal
# Method in brief: as §1
# GalNAc(a1-3)GalNAc = target: GalNAc(a1-3)GalNAc
# Method in brief: as §1
# [1] = target: GalNAc(a1-3)GalNAc(b1-3)Gal(a1-4)Gal(b1-4)Glc
# Method in brief: as §1
# [2] = target: GalNAc(a1-3)GalNAc(b1-3)Gal(a1-4)Gal(b1-4)GlcNAc
# Method in brief: as §1
# GalNAc(b1-3)Gal = target: GalNAc(b1-3)Gal
# Method in brief: as §1
# [3] = target: GalNAc(b1-3)Gal(a1-4)Gal(b1-4)GlcNAc
# Method in brief: as §1
# [4] = target: GalNAc(b1-3)Gal(a1-4)Gal(b1-4)GlcNAc(b1-3)Gal(b1-4)Glc
# Method in brief: as §1
# [5] = target: GalNAc(b1-3)Gal(a1-6)Gal(b1-4)Glc
# Method in brief: as §1
# GalNAc(b1-3)GalNAc = target: GalNAc(b1-3)GalNAc
# Method in brief: as §1
# GalNAc(b1-3)GlcNAc = target: GalNAc(b1-3)GlcNAc
# Method in brief: as §1
# GalNAc(b1-4)Gal(b1-4)Glc = target: GalNAc(b1-4)Gal(b1-4)Glc
# Method in brief: as §1
# GalNAc(b1-4)GlcNAc = target: GalNAc(b1-4)GlcNAc
# Method in brief: as §1
# [6] = target: GalNAc(b1-4)GlcNAc(b1-2)Man
# Method in brief: as §1
# [7] = target: GalNAc(b1-4)GlcNAc(b1-2)Man(a1-3)[GalNAc(b1-4)GlcNAc(b1-2)Man(a1-6)]Man(b1-4)GlcNAc(b1-4)GlcNAc
# Method in brief: as §1
# [8] = target: GalNAc(b1-4)GlcNAc(b1-3)GalNAc(b1-4)GlcNAc
# Method in brief: as §1
# GalNAc(b1-4)GlcNAc6S = target: GalNAc(b1-4)GlcNAc6S
# Method in brief: as §1
# GalNAc(b1-6)GalNAc = target: GalNAc(b1-6)GalNAc
# Method in brief: as §1
# GalNAc3S(b1-4)GlcNAc = target: GalNAc3S(b1-4)GlcNAc
# Method in brief: as §1
# GalNAc3S(b1-4)GlcNAc3S = target: GalNAc3S(b1-4)GlcNAc3S
# Method in brief: as §1
# [9] = target: GalNAc3S(b1-4)[Fuc(a1-3)]GlcNAc
# Method in brief: as §1
# GalNAc4S6S(b1-4)GlcNAc = target: GalNAc4S6S(b1-4)GlcNAc
# Method in brief: as §1
# GalNAc6S(b1-4)GlcNAc = target: GalNAc6S(b1-4)GlcNAc
# Method in brief: as §1
# Glc(a1-4)Glc = target: Glc(a1-4)Glc
# Method in brief: as §1
# [10] = target: Glc(a1-4)Glc(a1-4)Glc(a1-4)Glc
# Method in brief: as §1
# Glc(a1-6)Glc(a1-6)Glc = target: Glc(a1-6)Glc(a1-6)Glc
# Method in brief: as §1
# [11] = target: Glc(a1-6)Glc(a1-6)Glc(a1-6)Glc
# Method in brief: as §1
# Glc(b1-4)Glc = target: Glc(b1-4)Glc
# Method in brief: as §1
# Glc(b1-6)Glc = target: Glc(b1-6)Glc
# Method in brief: as §1
# GlcA(b1-3)Gal = target: GlcA(b1-3)Gal
# Method in brief: as §1
# GlcA(b1-3)GlcNAc = target: GlcA(b1-3)GlcNAc
# Method in brief: as §1
# GlcA(b1-6)Gal = target: GlcA(b1-6)Gal
# Method in brief: as §1
# [12] = target: GlcA3S(b1-3)Gal(b1-4)GlcNAc(b1-2)Man
# Method in brief: as §1
# [13] = target: GlcA3S(b1-3)Gal(b1-4)GlcNAc(b1-3)Gal(b1-4)Glc
# Method in brief: as §1
# [14] = target: GlcNAc(a1-3)Gal(b1-4)GlcNAc
# Method in brief: as §1
# [15] = target: GlcNAc(a1-4)Gal(b1-3)GlcNAc
# Method in brief: as §1
# [16] = target: GlcNAc(a1-4)Gal(b1-4)GalNAc
# Method in brief: as §1
# [17] = target: GlcNAc(a1-4)Gal(b1-4)GlcNAc
# Method in brief: as §1
# [18] = target: GlcNAc(a1-4)Gal(b1-4)GlcNAc(b1-3)Gal(b1-4)Glc
# Method in brief: as §1
# [19] = target: GlcNAc(a1-4)Gal(b1-4)GlcNAc(b1-3)Gal(b1-4)GlcNAc
# Method in brief: as §1
# [20] = target: GlcNAc(a1-4)Gal(b1-4)GlcNAc(b1-3)Gal(b1-4)GlcNAc(b1-3)Gal(b1-4)GlcNAc
# Method in brief: as §1
# [21] = target: GlcNAc(a1-4)Gal(b1-4)GlcNAc(b1-3)Gal(b1-4)[Fuc(a1-3)]GlcNAc(b1-3)Gal(b1-4)[Fuc(a1-3)]GlcNAc
# Method in brief: as §1
binder,measurement,setting,value
B1,glycan array binding signal (z-score),Gal6S(b1-4)Glc,-0.323
same,glycan array binding signal (z-score),Gal6S(b1-4)Glc6S,-0.336
same,glycan array binding signal (z-score),Gal6S(b1-4)GlcNAc,-0.336
same,glycan array binding signal (z-score),Gal6S(b1-4)GlcNAc6S,-0.338
same,glycan array binding signal (z-score),GalNAc(a1-3)Gal,0.124
same,glycan array binding signal (z-score),GalNAc(a1-3)GalNAc,0.382
same,glycan array binding signal (z-score),[1],0.005
same,glycan array binding signal (z-score),[2],-0.307
same,glycan array binding signal (z-score),GalNAc(b1-3)Gal,-0.337
same,glycan array binding signal (z-score),[3],-0.335
same,glycan array binding signal (z-score),[4],-0.354
same,glycan array binding signal (z-score),[5],-0.342
same,glycan array binding signal (z-score),GalNAc(b1-3)GalNAc,0.998
same,glycan array binding signal (z-score),GalNAc(b1-3)GlcNAc,-0.334
same,glycan array binding signal (z-score),GalNAc(b1-4)Gal(b1-4)Glc,-0.337
same,glycan array binding signal (z-score),GalNAc(b1-4)GlcNAc,-0.098
same,glycan array binding signal (z-score),[6],-0.338
same,glycan array binding signal (z-score),[7],-0.322
same,glycan array binding signal (z-score),[8],-0.339
same,glycan array binding signal (z-score),GalNAc(b1-4)GlcNAc6S,-0.334
same,glycan array binding signal (z-score),GalNAc(b1-6)GalNAc,-0.332
same,glycan array binding signal (z-score),GalNAc3S(b1-4)GlcNAc,-0.34
same,glycan array binding signal (z-score),GalNAc3S(b1-4)GlcNAc3S,-0.341
same,glycan array binding signal (z-score),[9],-0.334
same,glycan array binding signal (z-score),GalNAc4S6S(b1-4)GlcNAc,-0.347
same,glycan array binding signal (z-score),GalNAc6S(b1-4)GlcNAc,-0.347
same,glycan array binding signal (z-score),Glc(a1-4)Glc,-0.333
same,glycan array binding signal (z-score),[10],-0.337
same,glycan array binding signal (z-score),Glc(a1-6)Glc(a1-6)Glc,-0.333
same,glycan array binding signal (z-score),[11],-0.337
same,glycan array binding signal (z-score),Glc(b1-4)Glc,-0.318
same,glycan array binding signal (z-score),Glc(b1-6)Glc,-0.329
same,glycan array binding signal (z-score),GlcA(b1-3)Gal,-0.393
same,glycan array binding signal (z-score),GlcA(b1-3)GlcNAc,-0.261
same,glycan array binding signal (z-score),GlcA(b1-6)Gal,-0.335
same,glycan array binding signal (z-score),[12],-0.325
same,glycan array binding signal (z-score),[13],-0.342
same,glycan array binding signal (z-score),[14],3.12
same,glycan array binding signal (z-score),[15],2.74
same,glycan array binding signal (z-score),[16],1.03
same,glycan array binding signal (z-score),[17],3.11
same,glycan array binding signal (z-score),[18],3.37
same,glycan array binding signal (z-score),[19],4.43
same,glycan array binding signal (z-score),[20],6.33
same,glycan array binding signal (z-score),[21],3.01
